According to PubChem BioAssay (NCI):
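A five-concentration, 48-hour dose response in 96-well plates underlies each endpoint, interpolated linearly between surrounding concentrations. GI50 = concentration required for 50% inhibition of growth. Definition used: TGI = concentration required for complete inhibition of growth.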

System: NCI-H322M lung
Assay: NCI anticancer screen, dose series, 48 h

SMILES	GI50	TGI
CC(C)(C)c1cc(NC(=O)Nc2ccc(-c3cn4c5c(sc4n3)CCc3cn(CCCN4CCCCC4)cc3-5)cc2)no1	1.8 µM	3.34 µM
COc1ccc(NC(=O)[C@H](C)NC(=O)OC(C)(C)C)cc1C(=O)Nc1cccc(-c2cc(=O)c3c(OC)c(OC)c(OC)cc3o2)c1	2.43 µM	6.98 µM
